The values below come from US20150237858A1, “METHOD OF CONTROLLING RYANODINE-MODULATOR INSECTICIDE RESISTANT INSECTS” (BASF SE, priority 2012, published 2015).

For this data set, the system named is Plutella xylostella (Cebu Strain).
Where [1] appears, read: Plutella xylostella (Cebu Strain), 3DAI, May 2012.
The mark [2] stands for this setting: Plutella xylostella Cebu strain, third instar larvae, leaf dip, 3DAI, May 2011.

Like-named read-outs stand apart in the source and are kept apart here.

Under setting [1], `CNC(=O)c1cc(Cl)cc(C)c1NC(=O)c1cc(Br)nn1-c1ncccc1Cl` [Chlorantraniliprole, chlorantraniliprole] returned an LC50 of 40.7 ppm and an LC90 of 98.6 ppm. Besides, under setting [2], the 50% lethal concentration (LC50) came out at 16.1 ppm and the LC90 amounted to 37.3 ppm.
For the molecule `CCS(CC)=NC(=O)c1cc(Cl)cc(C)c1NC(=O)c1cc(C(F)(F)F)nn1-c1ncccc1Cl` [Compound I-11, 2-(3-chloro-2-pyridyl)-N-[2-methyl-4-chloro-6-[(diethyl-λ^4-sulfanylidene)carbamoyl]phenyl]-5-(trifluoromethyl)pyrazole-3-carboxamide], under setting [2], the 50% lethal concentration (LC50) is 2.22 ppm and the LC90 came out at 4.93 ppm.
As for `CCS(CC)=NC(=O)c1cc(Cl)cc(Cl)c1NC(=O)c1cc(C(F)(F)F)nn1-c1ncccc1Cl` [Compound I-16, 2-(3-chloro-2-pyridyl)-N-[2,4-dichloro-6-[(diethyl-λ^4-sulfanylidene)carbamoyl]phenyl]-5-(trifluoromethyl)pyrazole-3-carboxamide], under setting [2], the LC50 was found to be 1.44 ppm and the LC90 amounted to 3.06 ppm.
With `Cc1cc(Cl)cc(C(=O)N=S(C(C)C)C(C)C)c1NC(=O)c1cc(C(F)(F)F)nn1-c1ncccc1Cl` [Compound I-21, 2-(3-chloro-2-pyridyl)-N-[2-methyl-4-chloro-6-[(bis-2-propyl-λ^4-sulfanylidene)carbamoyl]phenyl]-5-(trifluoromethyl)pyrazole-3-carboxamide], under setting [1], the LC50 came to 2.64 ppm and the LC90 came to 8.37 ppm.
Under setting [2], `CC(C)S(=NC(=O)c1cc(Cl)cc(Cl)c1NC(=O)c1cc(C(F)(F)F)nn1-c1ncccc1Cl)C(C)C` [Compound I-26, 2-(3-chloro-2-pyridyl)-N-[2,4-dichloro-6-[(bis-2-propyl-λ^4-sulfanylidene)carbamoyl]phenyl]-5-(trifluoromethyl)pyrazole-3-carboxamide] returned a 50% lethal concentration (LC50) of 0.82 ppm and an LC90 of 1.55 ppm.
Take `CNC(=O)c1cc(C#N)cc(C)c1NC(=O)c1cc(Br)nn1-c1ncccc1Cl` [Cyantraniliprole, cyantraniliprole]: under setting [1], the median lethal concentration (LC50) came to 25.7 ppm and the LC90 is 97.0 ppm.
For the molecule `Cc1cc(C(F)(C(F)(F)F)C(F)(F)F)ccc1NC(=O)c1cccc(I)c1C(=O)NC(C)(C)CS(C)(=O)=O` [Flubendiamide, flubendiamide], under setting [1], the median lethal concentration (LC50) is 902 ppm and the LC90 was determined as 2703 ppm. Also, the “control (in place of LC50/LC90)” value (at 1000 ppm, Plutella xylostella Cebu strain, 3DAI, May 2011) is “insufficient control at 1000 ppm”. The “efficacy against the field collected Cebu strain of Plutella xylostella” value (summary of tables B.1A and B.1B) is “only weak efficacies”.
